From patent publication US20230272116A1, “ANTIBODIES WHICH BIND TO CANCER CELLS AND TARGET RADIONUCLIDES TO SAID CELLS” (Hoffmann-La Roche Inc., priority 2020, published 2023)

Assays:
[1] = FACS staining using DOTA-FITC: recruitment of Pb-DOTA-FITC to MKN-45 cells by SPLIT antibodies (Example 7); type: binding; details: antibodies 10 μg/mL final, 1 h 4° C.; Pb-DOTA-FITC equimolar; FIG. 24
Description: (§1) MKN-45 cells were detached from the culture bottle using Trypsin and were counted using a Casy cell counter. After pelleting at 4° C., 300 g the cells were resuspended in FACS Buffer (2.5% FCS in PBS), adjusted to 2.0E+06 cells/mL dispensed to 96-well PP V-bottom-Platte (25 μL/well=5.0E+04 Zellen/well).
The CEA specific SPLIT antibodies (P1AF0712 or P1AF0713 respectively) were adjusted to 40 μg/mL in FACS buffer, resulting in a final concentration of 10 μg/mL. Both antibodies were added to the cells either combined or separated and followed by buffer and incubated at 4° C. for 1 h. Subsequently, Pb-DOTA labeled with FITC was added to the cells in equimolar ratio to the antibodies and incubated for 1 h at 4° C. The cells were then washed twice in FACS buffer and resuspended in 70 μl/well FACS buffer for measurement using a FACS Canto (BD, Pharmingen). […] Only a combination of both SPLIT halves was able to recruit Pb-DOTAM-FITC to the target cells (FIG. 24).
(§2) EC50 was determined for the SPLIT antibodies using either secondary antibody based detection (488, top panel) or Pb-DOTA-FITC (DOTA-FITC, bottom panel)

[2] = molecular target: T1, CEA on MKN-45 cells (Homo sapiens, UniProt P06731); assay: FACS staining using <huIgG(H+L)A488>: EC50 of SPLIT antibody binding to MKN-45 cells (Example 7); details: secondary antibody <huIgG(H+L)>-Alexa488 10 μg/mL
T1 construct: endogenous in cells; host or cells: MKN-45 cells
T1 sequence (P06731 35-676): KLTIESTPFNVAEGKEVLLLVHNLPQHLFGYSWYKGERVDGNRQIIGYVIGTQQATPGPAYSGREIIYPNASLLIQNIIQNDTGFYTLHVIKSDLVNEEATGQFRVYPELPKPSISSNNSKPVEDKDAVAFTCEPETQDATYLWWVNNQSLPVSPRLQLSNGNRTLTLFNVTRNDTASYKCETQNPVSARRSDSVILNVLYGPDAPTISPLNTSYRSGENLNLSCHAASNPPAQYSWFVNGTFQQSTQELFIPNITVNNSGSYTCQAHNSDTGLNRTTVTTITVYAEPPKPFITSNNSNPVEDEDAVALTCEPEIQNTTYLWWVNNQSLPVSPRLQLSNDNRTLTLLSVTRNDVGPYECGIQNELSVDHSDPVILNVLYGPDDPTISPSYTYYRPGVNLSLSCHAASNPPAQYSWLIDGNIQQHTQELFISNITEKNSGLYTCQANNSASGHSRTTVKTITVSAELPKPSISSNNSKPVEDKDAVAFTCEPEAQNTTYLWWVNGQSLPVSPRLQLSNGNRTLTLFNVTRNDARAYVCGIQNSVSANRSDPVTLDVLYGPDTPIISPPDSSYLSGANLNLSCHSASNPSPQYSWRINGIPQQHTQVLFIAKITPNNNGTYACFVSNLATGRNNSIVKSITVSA
Description: as §1
The CEA specific SPLIT antibodies (P1AF0712 or P1AF0713 respectively) were adjusted to 40 μg/mL in FACS buffer, resulting in a final concentration of 10 μg/mL. Both antibodies were added to the cells either separated followed by buffer or combined and incubated at 4° C. for 1 h. The cells were then washed twice in FACS buffer. After washing, the cells were resuspended in 50 μL FACS-buffer containing secondary antibody (<huIgG(H+L)>-Alexa488, c=10 μg/mL) and incubated 1 h at 4° C. The cells were then washed twice in FACS buffer and resuspended in 70 μl/well FACS buffer for measurement using a FACS Canto (BD, Pharmingen).
as §2

[3] = Expression analysis (protein yield) of N-terminal fusion format split antibodies (Example 10); details: HEK cell expression; for Yield after Prot A: after Protein A affinity step; for Final Yield: after final purification
From the text: In a first set, the VH and VL domain of the humanized DOTAM binder contained an N-terminal Q for the VH domain and an N-terminal A for the VL domain. In the second set, they contained an N-terminal G and S, respectively. It was observed that in this format, the antibody containing the VH domain of the humanized DOTAM binder was not successfully expressed with an N-terminal G but was successfully expressed with an N-terminal Q. G is not a typical residue at this position in a VH domain. An antibody containing the VL domain was successfully expressed with either an N-terminal S or A residue, both of which are typical residues at this position in a VL domain.

B1: P1AF0712: CEA (CH1A1A) SPLIT antibody with DOTA-VL; SEQ ID NO: 97, 98, light chain 103 (antibody)
heavy 1: QVQLVQSGAEVKKPGASVKVSCKASGYTFTEFGMNWVRQAPGQGLEWMGWINTKTGEATYVEEFKGRVTFTTDTSTSTAYMELRSLRSDDTAVYYCARWDFAYYVEAMDYWGQGTTVTVSSASTKGPSVFPLAPSSKSTSGGTAALGCLVKDYFPEPVTVSWNSGALTSGVHTFPAVLQSSGLYSLSSVVTVPSSSLGTQTYICNVNHKPSNTKVDKKV[human IgG1 Fc with changes skipped]
heavy 2: QVQLVQSGAEVKKPGASVKVSCKASGYTFTEFGMNWVRQAPGQGLEWMGWINTKTGEATYVEEFKGRVTFTTDTSTSTAYMELRSLRSDDTAVYYCARWDFAYYVEAMDYWGQGTTVTVSSASTKGPSVFPLAPSSKSTSGGTAALGCLVKDYFPEPVTVSWNSGALTSGVHTFPAVLQSSGLYSLSSVVTVPSSSLGTQTYICNVNHKPSNTKVDKKVEPKSCDKTHTCPPCPAPEAAGGPSVFLFPPKPKDTLMISRTPEVTCVVVDVSHEDPEVKFNWYVDGVEVHNAKTKPREEQYNSTYRVVSVLTVLHQDWLNGKEYKCKVSNKALGAPIEKTISKAKGQPREPQVCTLPPSRDELTKNQVSLSCAVKGFYPSDIAVEWESNGQPENNYKTTPPVLDSDGSFFLVSKLTVDKSRWQQGNVFSCSVMHEALHNHYTQKSLSLSPGGGGGSGGGGSGGGGSGGGGSQAVVIQESALTTPPGETVTLTCGSSTGAVTASNYANWVQEKPDHLFTGLIGGHNNRPPGVPARFSGSLIGDKAALTIAGTQTEDEAIYFCALWYSDHWVIGGGTKLTVL
light: DIQMTQSPSSLSASVGDRVTITCKASAAVGTYVAWYQQKPGKAPKLLIYSASYRKRGVPSRFSGSGSGTDFTLTISSLQPEDFATYYCHQYYTYPLFTFGQGTKLEIKRTVAAPSVFIFPPSDEQLKSGTASVVCLLNNFYPREAKVQWKVDNALQSGNSQESVTEQDSKDSTYSLSSTLTLSKADYEKHKVYACEVTHQGLSSPVTKSFNRGEC
With B1 as the molecule, how does the “Pb-DOTA-FITC fluorescence signal on MKN-45 cells” value [1] read?
The value was “lack of Pb-DOTA binding capability”.

What about the “EC50 of binding to MKN-45 cells” value [2] of the same molecule?
Its value is “comparable”.

B2: P1AF0713: CEA (CH1A1A) SPLIT antibody with DOTA-VH-AST; SEQ ID NO: 100, 101, light chain 103 (antibody)
heavy 1: QVQLVQSGAEVKKPGASVKVSCKASGYTFTEFGMNWVRQAPGQGLEWMGWINTKTGEATYVEEFKGRVTFTTDTSTSTAYMELRSLRSDDTAVYYCARWDFAYYVEAMDYWGQGTTVTVSSASTKGPSVFPLAPSSKSTSGGTAALGCLVKDYFPEPVTVSWNSGALTSGVHTFPAVLQSSGLYSLSSVVTVPSSSLGTQTYICNVNHKPSNTKVDKKVEPKSCDKTHTCPPCPAPEAAGGPSVFLFPPKPKDTLMISRTPEVTCVVVDVSHEDPEVKFNWYVDGVEVHNAKTKPREEQYNSTYRVVSVLTVLHQDWLNGKEYKCKVSNKALGAPIEKTISKAKGQPREPQVCTLPPSRDELTKNQVSLSCAVKGFYPSDIAVEWESNGQPENNYKTTPPVLDSDGSFFLVSKLTVDKSRWQQGNVFSCSVMHEALHNHYTQKSLSLSPG
heavy 2: QVQLVQSGAEVKKPGASVKVSCKASGYTFTEFGMNWVRQAPGQGLEWMGWINTKTGEATYVEEFKGRVTFTTDTSTSTAYMELRSLRSDDTAVYYCARWDFAYYVEAMDYWGQGTTVTVSSASTKGPSVFPLAPSSKSTSGGTAALGCLVKDYFPEPVTVSWNSGALTSGVHTFPAVLQSSGLYSLSSVVTVPSSSLGTQTYICNVNHKPSNTKVDKKV[human IgG1 Fc with changes skipped]GGGGSGGGGSGGGGSGGGGSHVKLQESGPGLVQPSQSLSLTCTVSGFSLTDYGVHWVRQSPGKGLEWLGVIWSGGGTAYNTALISRLNIYRDNSKNQVFLEMNSLQAEDTAMYYCARRGSYPYNYFDAWGQGTTVTVSSAST
light: B1 light
Which “Pb-DOTA-FITC fluorescence signal on MKN-45 cells” value [1] does the source give for B2 here?
Its value is “lack of Pb-DOTA binding capability”.

What about the “EC50 of binding to MKN-45 cells” value [2] of the same molecule?
The value was “comparable”.

B3: P1AF7782: <CEA> CH1A1A N-terminal fusion split antibody with Dotam-VL; SEQ ID NO: 112, 113, light chain 115 (antibody)
heavy 1: QVQLVQSGAEVKKPGASVKVSCKASGYTFTEFGMNWVRQAPGQGLEWMGWINTKTGEATYVEEFKGRVTFTTDTSTSTAYMELRSLRSDDTAVYYCARWDFAYYVEAMDYWGQGTTVTVSSASTKGPSVFPLAPSSKSTSGGTAALGCLVKDYFPEPVTVSWNSGALTSGVHTFPAVLQSSGLYSLSSVVTVPSSSLGTQTYICNVNHKPSNTKVDKKV[human IgG1 Fc with changes skipped]
heavy 2: SIQMTQSPSSLSASVGDRVTITCQSSHSVYSDNDLAWYQQKPGKAPKLLIYQASKLASGVPSRFSGSGSGTDFTLTISSLQPEDFATYYCLGGYDDESDTYGFGGGTKVEIKGGGGSGGGGSGGGGSGGSGGDKTHTCPPCPAPEAAGGPSVFLFPPKPKDTLMISRTPEVTCVVVDVSHEDPEVKFNWYVDGVEVHNAKTKPREEQYNSTYRVVSVLTVLHQDWLNGKEYKCKVSNKALGAPIEKTISKAKGQPREPQVCTLPPSRDELTKNQVSLSCAVKGFYPSDIAVEWESNGQPENNYKTTPPVLDSDGSFFLVSKLTVDKSRWQQGNVFSCSVMHEALHNHYTQKSLSLSPGK
light: B1 light
With B3 as the molecule, how does the “Yield after Prot A” value [3] read?
The value was 382 mg/L.

And the “Final Yield” value [3]?
Its value is 67.7 mg/L.

B4: P1AF7784: <CEA> CH1A1A N-terminal fusion split antibody with Dotam-VH; SEQ ID NO: 112, 114, light chain 115 (antibody)
heavy 1: QVQLVQSGAEVKKPGASVKVSCKASGYTFTEFGMNWVRQAPGQGLEWMGWINTKTGEATYVEEFKGRVTFTTDTSTSTAYMELRSLRSDDTAVYYCARWDFAYYVEAMDYWGQGTTVTVSSASTKGPSVFPLAPSSKSTSGGTAALGCLVKDYFPEPVTVSWNSGALTSGVHTFPAVLQSSGLYSLSSVVTVPSSSLGTQTYICNVNHKPSNTKVDKKV[human IgG1 Fc with changes skipped]
heavy 2: GVTLKESGPVLVKPTETLTLTCTVSGFSLSTYSMSWIRQPPGKALEWLGFIGSRGDTYYASWAKGRLTISKDTSKSQVVLTMTNMDPVDTATYYCARERDPYGGGAYPPHLWGRGTLVTVSSGGGGSGGGGSGGGGSGGSGGDKTHTCPPCPAPEAAGGPSVFLFPPKPKDTLMISRTPEVTCVVVDVSHEDPEVKFNWYVDGVEVHNAKTKPREEQYNSTYRVVSVLTVLHQDWLNGKEYKCKVSNKALGAPIEKTISKAKGQPREPQVCTLPPSRDELTKNQVSLSCAVKGFYPSDIAVEWESNGQPENNYKTTPPVLDSDGSFFLVSKLTVDKSRWQQGNVFSCSVMHEALHNHYTQKSLSLSPGK
light: B1 light
Which “Yield after Prot A” value [3] does the source give for B4 here?
Its value is 2.0 mg/L.

What about the “Final Yield” value [3] of the same molecule?
Its value is 0 mg/L.
